# Counter-ions that a name gives are not always drawn. This is one part of the list. Many values rest on one well or one pass, so single values are uncertain.
# System: Beas-2B AQP5-HiBiT reporter cells
# Assay: AQP5-HiBiT luminescence relative to vehicle (ratio to vehicle); higher = higher AQP5-HiBiT protein abundance
# Conditions: 10 µM; 18 h
# 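Note: monoclonal Beas-2B line stably carrying CMV promoter-driven AQP5-HiBiT, 5,000 cells per well in 384-well plates, lytic HiBiT plus LgBiT NanoLuc luminescence, FDA-approved drug library screen.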
row,SMILES,AQP5-HiBiT luminescence
1,CC1CCOC2Cn3cc(C(=O)NCc4ccc(F)cc4F)c(=O)c(O)c3C(=O)N12 (stereo not given),0.751
2,CCOC(=O)O[C@]1(C(=O)OCCl)CC[C@H]2[C@@H]3CCC4=CC(=O)C=C[C@]4(C)[C@H]3[C@@H](O)C[C@@]21C [Loteprednol etabonate],0.894
3,C[C@@H]1CCN(C(=O)CC#N)C[C@@H]1N(C)c1ncnc2[nH]ccc12,0.442
4,COc1ccccc1OCCNCC(O)COc1cccc2[nH]c3ccccc3c12 (stereo not given) [Carvedilol],1.2
5,CC(C[N+](C)(C)C)OC(N)=O (stereo not given) [Bethanechol chloride],0.858
6,C[C@@H]1C[C@H]2[C@@H]3CCC4=CC(=O)C=C[C@]4(C)[C@@]3(Cl)[C@@H](O)C[C@]2(C)[C@@]1(OC(=O)c1ccco1)C(=O)CCl [Mometasone furoate],3.6
7,Clc1ccc(C(c2ccccc2Cl)C(Cl)Cl)cc1 (stereo not given) [Mitotan],1.2
8,OCCOCCN1CCN(C(c2ccccc2)c2ccc(Cl)cc2)CC1 (stereo not given) [Hydroxyzine 2hydrochloride],0.919
9,CCC(C)N1CCCC1=O (stereo not given) [Povidone-iodine (PVP-I)],0.977
10,CC(=O)NS(=O)(=O)c1ccc(N)cc1 [Sulfacetamide sodium],0.888
11,CC(=O)O[C@H]1CC[C@@]2(C)C(=CC[C@@H]3[C@@H]2CC[C@]2(C)C(c4cccnc4)=CC[C@@H]32)C1 [Abiraterone Acetate],0.57
12,CO/N=C(\C(=O)N[C@@H]1C(=O)N2C(C(=O)O)=C(CSc3nnnn3C)CS[C@H]12)c1csc(N)n1 [Cefmenoxime hydrochloride],1.14
13,Nc1nc(=O)c2c([nH]1)NCC(CNc1ccc(C(=O)N[C@@H](CCC(=O)O)C(=O)O)cc1)N2C=O (stereo not given in full) [Calcium folinate],0.485
14,CCC1=C(C)CN(C(=O)NCCc2ccc(S(=O)(=O)NC(=O)N[C@H]3CC[C@H](C)CC3)cc2)C1=O [Glimepiride],0.834
15,Cn1cnc([N+](=O)[O-])c1Sc1ncnc2[nH]cnc12 [Azathioprine],0.796
16,Cc1ccccc1C(OCCN(C)C)c1ccccc1 (stereo not given) [Orphenadrine hydrochloride],0.886
17,CC1(C)CCC(CN2CCN(c3ccc(C(=O)NS(=O)(=O)c4ccc(NCC5CCOCC5)c([N+](=O)[O-])c4)c(Oc4cnc5[nH]ccc5c4)c3)CC2)=C(c2ccc(Cl)cc2)C1,0.592
18,CO[C@H]1C[C@@H]2CC[C@@H](C)[C@@](O)(O2)C(=O)C(=O)N2CCCC[C@H]2C(=O)O[C@H]([C@H](C)C[C@@H]2CC[C@@H](O)[C@H](OC)C2)CC(=O)[C@H](C)/C=C(\C)[C@@H](O)[C@@H](OC)C(=O)[C@H](C)C[C@H](C)/C=C/C=C/C=C/1C [Rapamycin (Sirolimus)],0.626
19,O=C(/C=C/c1cccc(S(=O)(=O)Nc2ccccc2)c1)NO [Belinostat (PXD101)],2.56
20,N[C@@H]1CONC1=O [D-Cycloserine],1.14

row,SMILES,AQP5-HiBiT luminescence
1,COC(=O)C1=C(C)NC(C)=C(C(=O)OCC(C)C)C1c1ccccc1[N+](=O)[O-] (stereo not given) [Nisoldipine],0.92
2,Nc1ccn([C@@H]2O[C@H](CO)[C@@H](O)C2(F)F)c(=O)n1 [Gemcitabine],0.568
3,CCCCCNC(=N)N/N=C/c1c[nH]c2ccc(OC)cc12 [Tegaserod maleate],1.36
4,CC(=O)N[C@@H](CS)C(=O)O [Acetylcysteine],0.854
5,Nc1cc(N2CCCCC2)nc(N)[n+]1[O-] [Minoxidil],0.819
6,NNC(=O)c1ccncc1 [Isoniazid],0.809
7,C#C[C@]1(O)CC[C@H]2[C@@H]3CCC4=CC(=O)CC[C@@H]4[C@H]3CC[C@@]21CC [Levonorgestrel],0.906
8,CN(C)C(=O)C(CCN1CCC(O)(c2ccc(Cl)cc2)CC1)(c1ccccc1)c1ccccc1 [Loperamide hydrochloride],1.82
9,CC[C@@H]([C@H](C)O)n1ncn(-c2ccc(N3CCN(c4ccc(OC[C@@H]5CO[C@@](Cn6cncn6)(c6ccc(F)cc6F)C5)cc4)CC3)cc2)c1=O [Posaconazole],0.838
10,C#Cc1cccc(Nc2ncnc3cc(OCCOC)c(OCCOC)cc23)c1 [Erlotinib hydrochloride],0.512
11,Clc1ccc2c(c1)C(N1CCNCC1)=Nc1ccccc1O2 [Amoxapine],1.4
12,C=C1c2c(Cl)ccc(O)c2C(O)=C2C(=O)[C@]3(O)C(O)=C(C(N)=O)C(=O)[C@@H](N(C)C)[C@@H]3[C@@H](O)[C@H]12.O=C(O)c1cc(S(=O)(=O)O)ccc1O [Meclocycline sulfosalicylate salt],0.531
13,NS(=O)(=O)c1cc2c(cc1Cl)NCNS2(=O)=O [Hydrochlorothiazide],1.13
14,CC(=O)OCC(=O)[C@@]1(O)CC[C@H]2[C@@H]3CCC4=CC(=O)CC[C@]4(C)[C@H]3[C@@H](O)C[C@@]21C [Hydrocortisone acetate],0.721
15,CCC1(C)CC(=O)NC1=O (stereo not given) [Ethosuximide],0.861
16,CCCCCCCCCCCCC[N+](C)(C)Cc1ccccc1 [Benzalkonium chloride],0.604
17,CS(=O)(=O)CCNCc1ccc(-c2ccc3ncnc(Nc4ccc(OCc5cccc(F)c5)c(Cl)c4)c3c2)o1 [Lapatinib ditosylate],1.03
18,Cc1ccccc1C(=O)Nc1ccc(C(=O)N2CCCC(O)c3cc(Cl)ccc32)c(C)c1 (stereo not given) [Tolvaptan],0.801
19,COC(=O)c1ccccc1O [Birch-Me],0.909
20,COc1ccc2cc(CCC(C)=O)ccc2c1 [Nabumetone],0.784
